The other results are listed elsewhere or left out. At the low end of the ranking the order means little. Measured with an extract: partners may take part in the binding.
Biological target: T1, HNF4alpha2 (COS-7 nuclear extract) (UniProt P41235)
T1 sequence: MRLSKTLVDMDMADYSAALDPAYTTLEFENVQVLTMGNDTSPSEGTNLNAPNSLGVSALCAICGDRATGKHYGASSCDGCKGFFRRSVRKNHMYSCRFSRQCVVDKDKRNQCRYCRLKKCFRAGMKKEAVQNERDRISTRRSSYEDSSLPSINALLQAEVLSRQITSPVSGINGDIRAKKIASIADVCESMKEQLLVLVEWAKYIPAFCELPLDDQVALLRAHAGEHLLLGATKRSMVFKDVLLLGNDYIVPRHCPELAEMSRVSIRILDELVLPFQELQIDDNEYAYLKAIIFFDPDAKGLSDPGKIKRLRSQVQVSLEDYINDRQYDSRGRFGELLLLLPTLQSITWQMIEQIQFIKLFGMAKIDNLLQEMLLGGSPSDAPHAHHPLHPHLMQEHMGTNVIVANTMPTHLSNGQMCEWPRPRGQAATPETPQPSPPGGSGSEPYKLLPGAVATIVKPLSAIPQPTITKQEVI
Assay: protein-binding microarray
Conditions: COS-7 nuclear extract on double-stranded Agilent 4x180k PBM; binding buffer, salt, pH and temperature not given; high values mean tight binding; double strand, one strand shown; sequences stand for … in …GCCTAGGGAGATTAGAGTATCGGTCGA

Sequence	binding signal (log2 normalized intensity)
CCCAGGTCCAGCCTTTGGGCAGGGGCATCC	-0.72
CAGTGGTAACCACAGTACTGTCTTTTTGCC	-0.854
GAGTTCTTCAAGTCAGTCAAAATGAATAGT	1.32
AAGCACATACTTCTTCCTGTTTGACCTTCG	5.02
CTCTGGGAGGGAGGAGCACAGAAGGAGAGA	-1.19
TCTTACAACATAGTGATTTAGGCTTTTGGG	0.323
AAGCAGAGGGCGAGAAGTAGGTGCAAGGGA	-1.19
GCAGTAGTGCGATGATCATGGCTCACTGCA	-1.17
ACAAAACATTTGGTGTAAGCACTTGTGGTA	0.863
ATCAAACCTGTTATTTGCGCCTCCCTAGAG	-1.09
AGAGATTTTCACATGGAATGTCGTGCCCTA	1.21
AGGTTTCAGAGGCTCACAGAGAGGCTTCTG	-0.726
CTCCCGCAGCATACACTTTCCGTACTTTTC	0.833
GACTCCAGTGATCTTATCGCCTAGTACTCC	-0.841
ATCTCTGATGCCCTTTGGCCTTTCTAATTA	5.13
TCCCCTTTCTGTTGGAAGCTGATAAGCCAA	0.944
GCCCTGCCACCCCCGTTAATTTCTAACCAA	2.5
CTTGTTGGTAACCGGAGCAAAGGTTACTCT	4.05
CATTGCATGTGCATTTCACAATAGGGTTCA	2.46
CTCTCCCTCCAGGCCCCAGCCACGCCCTCT	3.65
AGCTTTATCTCTCCCCCACCACTGCTTCCT	3.82
GCATCAGCCGGTGCAAAGGCCTTAAAGTGT	-0.275
GACCTTTGGACTTGATAGAGTTTAAGTCTT	6.99
TTCTCCAGGAAGTTCAGGCCTCGGCTTCAT	-0.98

Sequence	binding signal (log2 normalized intensity)
TGCAGCCCTGCCACTCTTTTTTAGACTTTG	3.72
TCAGGTGTTGCTCTCTTGCCATTCGTGGAT	1.29
CTATTTGCTAATGTCCTTTGGAGTGCTTTC	2.17
GTTAGGTTGTGATACCCTCATTTTAGAGAT	0.582
TTGGACTCTATAGCCTATGCTTTGTATTTT	2.66
GAGGGATTACCCTATGTCCCCCGACCCGCC	4.97
ATTTGCCCTGAAGACATGAAAAGTGGAATG	1.6
TCTTTAAGGACCACATCAAAGGTCATCTCT	4.15
GAGAAGAAATGATGGGTGCCACTTCTGAGC	-1.19
GTGCGTTCATCTCACAGAGTGGAGTCTTCC	-0.712
TGCAGCAAAGTCCAGGCATACTTCCTGCTC	-1.14
ACAAGAATGGTCATTCTCTGTTGCATGGTT	0.97
GGCTTTAGAGTTGTAGCTCTCAGCTCCTAC	-1.06
TGGGAGTTGTGGTCCGCAGGGCTGCCTCGC	-1.12
GGTGGGCACCCCTGCCCCCATGTTGTTCAA	3.7
CCCTATTGGGCTAGCCGCTCCTCCCACGTC	-1.1
CCGCTGATCCCGGGAGGGAGAGAAGGACAT	-1.27
ACTTTCATCTGAGTCTCAGCAATTAACAGG	0.82
AGTGTTTCAAAGGAGTGTCTTTCTCCTTGA	1.09
TAATAACAGACCATGCCATGCATTTCAGAA	-1
ATTCCTAAGTTCCAAAGGCCATCCACATTC	1.84
CATTCCTGCACAGGACTGCTCTCTACTCAG	-1.14
CTTCGCAGCCCAGTGGTAATGGAGCTGAAA	-1.08
GCCCCAGGTGAACCAGGGTGCAATTCGCAT	-0.848

Sequence	binding signal (log2 normalized intensity)
TATTTGATGATGAAGCAACATTAAACACTA	-1.16
TCACTATCTGGGCCAAGGCAGATATACCAG	-1.23
GTGTGACTGAGGGCTGACATGTCTTCTCTC	0.0277
CACCCTTTTTTTTCTTTCTTTTCCCAAACC	2.13
CAGCTTCATTCCAGCCCCATTCTGTGCTGG	-1.08
AAGGCCTTTCATACGTTTAACAGTTCCTCC	-0.815
AGAGGAATTGTTCAACATGGTGACTCTAGT	-0.00599
TGCGAGGTTACAGGGTTCAACACGTGGTAT	2.24
AGACCTTTGGGTAGGAATAGAGCTCTAAAC	0.147
CTTCCAAGGCTGCAAGCAAACCTGCCCTTT	3.84
CTATCTCAGATAGCTTTAGCCGGACTTTGT	5.18
GGCCAACACCAAGCAAGCTCTGCAATAGAG	-1.18
GAATCCAGGCCAACTGGAAGTCCAGCATTC	-1.05
CCTCCAGCTCTTTTGAACCCAAGGCCAAAC	0.902
TGTGCACAGGGTGTGGCTTCCAAGGGGAAT	-0.711
CAAGGGCAGAGTCCTGGGGAGGGTAAGCAT	-1.25
TTATCTGAGACTCAAGGCAAGTTGCTTCCA	-0.884
TATGTCTGATGAATAGAAAGAGGTCAATGT	3.05
CAAAGAATGGAAGGCAGTGTTCCAAAGTGT	1.35
CAAGTATTCAAGAAAGGGGCAAAGTTTATG	2.34
TGCTGGCATCTCATTACTGACAGAGATCAA	-1.3
CTATAAACTTGGTTACAGGACCAGGTGTAG	0.0268
CAGGGCAGGGTATGCCTGACTGTAAGAAGT	-0.976
TTTATTTGCTTATAGCTCAAAGTCCACCAA	5.7

Sequence	binding signal (log2 normalized intensity)
AATGAATATTCAGACGCATGACCTCAACTC	0.0483
AGCCAGTGATTCAACTCTGACCCATAATAA	1.87
CCATCTATGCACTCTCACCTTGGGGGCTGC	-0.921
CTTATCAGTAGTTCTCCTTTCTGCCCTTTG	3.65
ATGCTGATAAGGGCCACAGATGGCCTCACT	-0.892
AAGTGCTAGCTTGGTCTGAACCTCATCTGT	1.06
ACTGGATGGTGCCTATTTGTCCCTGACCAA	0.57
GTGTAACTATTACTGGACAGCCAGCTGGTA	0.874
CAAGCAATGGAGAGGATTTTGGAATGTCGC	0.496
TGTACATAATCTGGACCCAAACGAATGGGC	0.621
TTTTTGGTTCCCCTTCCCCCAACAGGGCTC	4.44
AGCAGTGCCCAAAGCCCAAGGGATGTCCAT	-1.13
TTTAAGTGGGGTCAAAGGGTACAAATTCCA	4.76
TCGGTAGGCTTAGGCCAGGCGGAGCACACC	-1.2
GGGCAAGTTACTTAAGCCATCTGCTGCCTC	-0.98
GGTGAGGGTTACAGGTGGACAAACAGGCTG	-0.829
TCAGTAAATCTGCACTTTACGTAAGATAAG	-1.21
GGTCGCGCCGGGCGCCGCTCTGAGTGACCT	2.65
GATAAGGATTCCTGGAATGTTTGAGCTGGG	-0.779
GCAATGGCTGGGTCTAAGGGCAAGTGACTG	0.0544
ATGGAAGGACCTTGGACTGAAGACTGGAAC	2.09
